In PubChem BioAssay AID1347073 (National Center for Advancing Translational Sciences (NCATS), 2019):
The campaign covered roughly 45,000 compounds. About 200 (0.44%) were called active. Another 7% or so got no clear call; they are omitted. The call rests on the fitted dose curve; in most records, active means well fitted activation curve with a large enough effect; inconclusive means small, poorly fitted or top-dose-only effect; inactive means no such curve, though single readings can be large or run the other way. This is one part of the list.

Assay: qHTS of TDP-43 Inhibitors: NCGC Sytravon Library Screen; further: 0% is about no effect; nearly all actives have a fitted effect of over 55% in size
Details: yeast TDP-43 toxicity rescue, BacTiter-Glo growth, 24 h; series mostly up to 46.1 µM; growth rescue (activation): at the top concentration
Summary of the method: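 TDP-43-expressing yeast, pregrown in raffinose, seeded at OD600 0.02 in galactose medium with compound for 24 hr at 30 deg C. Growth read by BacTiter-Glo luminescence, so rescue of toxicity appears as activation.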

| SMILES | growth rescue (activation) |
| --- | --- |
| CC1(C(=O)NCc2cccnc2)CCN1C(=O)c1cccc(F)c1 (centres undefined) | inactive: 7.37% |
| Cc1cccnc1NC(=O)c1c(O)c2cccc3c2n(c1=O)CCC3 | inactive: -5.42% |
| C=CCC(Nc1ccccc1)c1cccc(OC)c1OC (centres undefined) | inactive: -6.2% |
| O=C1CCCC2=C1C(c1ccccc1)C1C(=O)c3ccccc3C1=N2 (centres undefined) | inactive: 2.27% |
| COc1ccc(-c2ccc(C(=O)O)o2)c([N+](=O)[O-])c1 | inactive: 1.01% |
| COC(=O)C1=C(C)N(C)C(=S)NC1c1ccccc1 (centres undefined) | inactive: -26.7% |
| Cc1c(C(=O)NC(=S)Nc2ccc(N3CCOCC3)cc2)cccc1[N+](=O)[O-] | inactive: 8.72% |
| COCCSc1ccccc1C(=O)N1CCN(c2ccccc2)CC1 | inactive: 13.6% |
| O=C(OCc1nc2ccc(Cl)cc2n1CCO)c1ccccc1 | inactive: -0.523% |
| O=C(Cc1cccs1)NNC(=O)C12CC3CC(CC(C3)C1)C2 | inactive: 8.75% |
| O=C(Nc1ccccc1Cl)c1ccc(Cl)cc1Cl | inactive: 8.83% |
| O=C(CCC(=O)c1cccs1)OCC(=O)c1ccc(F)cc1 | inactive: 6.04% |
| O=C1CCCc2nn(-c3ccccc3)c(-c3ccncc3)c21 | inactive: 20.9% |
| CC(C)C(NC(=O)c1ccccc1)c1nnc(SCC(=O)NC2CCCC2)n1C (centres undefined) | inactive: 1.63% |
| COc1ccc(NC(=O)COC(=O)C2CC(=O)N(c3ccc(C)cc3)C2)cc1 (centres undefined) | inactive: 9.01% |
| CSc1cccc(N2C(=O)C3CCCN3C2=S)c1 (centres undefined) | inactive: 12.5% |
| COCc1c(C(=O)N/N=C/c2ccc(C)o2)nnn1-c1nonc1N | inactive: -12.8% |
| COC(=O)c1ccc(NC(=O)c2nc(-c3ccc(Cl)cc3)n3c2CCCCC3)cc1 | inactive: 27.1% |
| CCn1nc(C(=O)NNC(=O)C(Cc2ccccc2)NC(N)=O)c2ccccc2c1=O (centres undefined) | inactive: 6.03% |
| Cc1ncc(CO)c(/C=N/Nc2ccc(C(F)(F)F)cn2)c1O | inactive: 5.76% |
| CCOC(=O)c1ccc(N=Nc2c(C)c(C#N)c(O)[nH]c2=O)cc1 | inactive: 6.12% |
| C/C=C/c1ccc(OCCCCOc2c(OC)cccc2OC)c(OC)c1 | inactive: 7.36% |
| Cc1ccccc1NS(=O)(=O)c1cc(C(=O)N2CCCC2)ccc1C | inactive: 7.81% |

| SMILES | growth rescue (activation) |
| --- | --- |
| CC(NC(=O)Cc1ccccc1)C(c1ccccc1)N1CCOCC1 (centres undefined) | inactive: -3.34% |
| CC(C)N(C(=O)NC(=O)Nc1ccccn1)S(C)(=O)=O | inactive: -9.7% |
| C=CCOc1ccc(/C=C2\SC(=S)N(NS(=O)(=O)c3ccccc3)C2=O)cc1 | inactive: 1.85% |
| CC(C)(C)C1CCc2nc(NC(=O)Cc3cn4ccsc4n3)sc2C1 (centres undefined) | inactive: -81.5% |
| CCCNC(=O)C1(C)CCN(C(=O)c2ccc(F)cc2Cl)C1 (centres undefined) | inactive: -1.24% |
| Fc1cccc(-n2ncc3c2ncn2nc(Cc4ccccc4)nc32)c1 | inactive: 8.69% |
| CC(=O)NC(C)(c1ccccc1)c1nc(-c2cccc(C(F)(F)F)c2)cs1 (centres undefined) | inactive: 25% |
| O=C(O)c1oc2ccccc2c1CSc1ccc(Cl)cc1 | inactive: 5.89% |
| O=C(NNS(=O)(=O)c1ccc([N+](=O)[O-])cc1)c1ccncc1 | inactive: -5.81% |
| O=C(CSc1nnc(-c2ccc(S(=O)(=O)N3CCCC3)cc2)n1CC1CCCO1)NC1CC1 (centres undefined) | inactive: 30.7% |
| COc1ccccc1C(=O)C1CCCN(C(=O)c2cn3cc(Cl)ccc3n2)C1 (centres undefined) | inactive: 12.4% |
| CC1CCCC(C)N1C(=O)COC(=O)c1ccc(Br)c(S(=O)(=O)N2CCOCC2)c1 (centres undefined) | inactive: -21.7% |
| COc1ccc(-n2c(SCC(=O)c3ccc[nH]3)nnc2-c2ccccc2)cc1 | inactive: -21% |
| COc1ccccc1CNC(=O)c1ccc2nc(C)c(N(C)Cc3ccc(NC(C)=O)cc3)n2c1 | inactive: 10.6% |
| COc1ccc(-c2nn(-c3ccccc3C)cc2CNC(C)c2cn(C)nc2C)cc1F (centres undefined) | inactive: -9.64% |
| O=C(C[n+]1cc(Br)cc2ccccc21)c1ccc(Br)cc1 | inactive: 3.95% |
| COc1ccc(C2CC(c3cccs3)=NN2C(=O)c2ccco2)cc1OC (centres undefined) | inactive: 10.8% |
| COCCNC(C(=O)Nc1ccc([N+](=O)[O-])cc1Br)c1ccccc1 (centres undefined) | inactive: 11.2% |
| CN(C)C(=O)CSc1nnc(-c2cccs2)n1-c1ccccc1 | inactive: 25.3% |
| CNC(=O)CN1C(=O)NC(Cc2c[nH]c3ccccc23)C1=O (centres undefined) | inactive: 1.66% |
| COc1ccccc1/C=C/C(=C1/C(=O)N(c2ccccc2)N=C1C)c1ccc(C)cc1 | inactive: -0.76% |
| COc1ccc(C/C(N)=N/O)cc1 | inactive: 5.97% |
| CC(O)C(NS(=O)(=O)c1ccc(Cl)cc1)C(=O)OCC(=O)N1CCN(c2ccccc2)CC1 (centres undefined) | inactive: 14.5% |

| SMILES | growth rescue (activation) |
| --- | --- |
| CC1CCc2c(sc3ncn(Cc4ccc(C(=O)O)cc4)c(=O)c23)C1 (centres undefined) | inactive: 4.32% |
| COCC(=O)N1CCC(Oc2ccc(C(=O)NC3CCOC(C)(C)C3)cc2)CC1 (centres undefined) | inactive: 2.81% |
| CC(=O)Nc1cccc(OCC(=O)NC(C)c2ccc3ccccc3c2)c1 (centres undefined) | inactive: 3.12% |
| N#CCc1ccc(NC(=O)c2cc(S(=O)(=O)N3CCOCC3)ccc2Cl)cc1 | inactive: 0.833% |
| O=C(COC(=O)c1ccc(CNS(=O)(=O)c2ccc(F)c(Cl)c2)cc1)NC1CCCCCCC1 | inactive: 15.7% |
| COc1cc(CC(NC(C)=O)C(=O)NC2CCN(C(=O)c3cc(OC)c(OC)c(OC)c3)CC2)cc(OC)c1 (centres undefined) | inactive: 2.53% |
| O=C(c1ccccc1)c1ccc(-n2ccnc2)c([N+](=O)[O-])c1 | inactive: 2.06% |
| Cc1cc(NC(=O)Cn2ccc([N+](=O)[O-])n2)no1 | inactive: 1.08% |
| Cc1nc(Cl)c(N=Cc2cccc([N+](=O)[O-])c2)c(Cl)n1 | inactive: 17.7% |
| Cc1c(C)n(CCCN(C)C)c2ncnc(NC3CCCCC3)c12 | inactive: -3.83% |
| CCOc1ccc(NS(=O)(=O)c2cc(C(=O)NCCN3CCOCC3)ccc2C)cc1 | inactive: 2.4% |
| CCCCn1c(-c2ccc(Br)cc2F)nc2c1c(=O)[nH]c(=O)n2CC(C)C | inactive: 26.3% |
| CC(C)CNc1nnnc2c1sc1nc(N3CCOCC3)c3c(c12)CCCC3 | inactive: 16% |
| Cc1ccc(S(=O)(=O)NC(=O)NC(C)c2ccc(F)cc2)cc1 (centres undefined) | inactive: 0.327% |
| Cc1n[nH]c(C)c1CCCCOc1ccccc1F | inactive: 16.5% |
| OC(c1ccc(OCc2ccccc2)cc1)c1nnc(-c2ccccc2)o1 (centres undefined) | inactive: 12.8% |
| O=C(CSc1nc2ccccc2c(=O)[nH]1)NCc1ccc(Cl)cc1 | inactive: 13.1% |
| COc1ccc(N(C)S(=O)(=O)c2c(C)noc2C)c(OC)c1 | inactive: -9.29% |
| COc1ccc(C2=NN(C(=O)c3ccccc3)C(c3ccccc3)C2)c(O)c1 (centres undefined) | inactive: -1.04% |
| Cn1cc(C(=O)NCN2CCCCC2)c2ccccc21 | inactive: 7.28% |
| CCCC1=[N+](CC(C)=O)CCn2c(C)ccc21 | inactive: -12.8% |
| O=C(COC(=O)c1ccccc1O)Nc1cccc(S(=O)(=O)NC2=NCCCCC2)c1 | inactive: 5.51% |
| COc1cc(CNCCCN2CCOCC2)c(Br)cc1OCC(=O)Nc1ccccc1C | inactive: -2.51% |
